In article PMC10726135:
The list shows a part of the results. At the low end of the ranking, values are background and their order means little. The protein was read in a cell extract, so binding may be indirect.

These sequences were tested against T1, HNF4alpha8 (COS-7 nuclear extract) (UniProt P41235-5) (assay: protein-binding microarray). Settings: COS-7 nuclear extract on double-stranded Agilent 4x180k PBM; binding buffer, salt, pH and temperature not given; high values mean tight binding; double strand, one strand shown; sequences stand for … in …GCCTAGGGAGATTAGAGTATCGGTCGA.
T1 sequence: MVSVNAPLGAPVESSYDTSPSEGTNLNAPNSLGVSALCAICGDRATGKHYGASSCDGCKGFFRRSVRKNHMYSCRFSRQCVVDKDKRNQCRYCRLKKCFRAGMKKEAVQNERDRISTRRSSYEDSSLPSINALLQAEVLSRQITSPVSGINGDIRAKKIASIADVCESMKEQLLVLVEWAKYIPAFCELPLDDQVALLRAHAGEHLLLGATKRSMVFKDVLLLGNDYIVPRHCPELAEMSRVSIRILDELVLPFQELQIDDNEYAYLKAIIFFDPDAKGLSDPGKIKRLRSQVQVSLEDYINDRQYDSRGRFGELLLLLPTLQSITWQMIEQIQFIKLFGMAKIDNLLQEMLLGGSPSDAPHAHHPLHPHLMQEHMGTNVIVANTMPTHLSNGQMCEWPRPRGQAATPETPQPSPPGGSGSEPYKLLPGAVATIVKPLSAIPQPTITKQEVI

Sequence	binding signal (log2 normalized intensity)
AGGAGACCGAGCAGCTCTTTACAAAGCCCA	-1.26
GAGTCCACGTACTTAACTACTACACTAAAA	-1.04
CTGCAGCTGAGTAGAGGAAAGATAACTAAA	-1.28
CTCTGCGCCCTTGGAATATCCTGCCTAACA	-1.23
AGCAGAACCCAGGGTCACAAGGATCCCATT	-1.39
TGTCAACAGCTCAAGTTATCTGAAGCTCTC	-1.3
GGGGCAATAACCCTAGACACCGGGTGAAGG	-1.34
ACATCTTTAATTATCATCTCTGTGTATAAG	1.66
TCCAAGGTCACACAGCTAAGAGCCGCAGAG	-1.3
TCCAGGGAACTGTCCACCAAGGAGGTGCTG	-1.35
CGCAGCACACTGCAGCGGCATTCTCTGGTC	-1.31
CTTTTGGCCAGAGTAAGGCGGTTCTTGTCT	0.56
ACACCAGGCCCTCGGCATCATGCCCTTTGG	4.63
ACATTCAGATTCCTGAGCCCAGATCCTCTA	-1.36
TCCCTTTAGTGGAGTATAGGAACATGAACT	2.03
GCTCTAGATCTCAAAGTCCAAATAGCGCTA	3.83
GGGGCGGTTTTTCCATTGTACTCAGTATGT	1.93
TGCGGTGAGCATTTGTTTAGGAATTTATCT	-0.414
ATCTCCCAGTTCTTTTGACCTTTGCCTCAT	8.61
CAAGGCAAGAGAGTCATAAAGGGCAGGAAC	-1.35
GTATGAGATAAGGCTAGTAACACTCACATT	-1.33
CTGGCAGTGAAGGTTCAGTGAAGTAGTGTG	1.17
AAGTATCTCGGTCAAACCTTTGACCCTTTA	6.9
CCTTGCCTGGCTACCTCTTAGCTACCCTGT	0.678
GGACCACGATCAGCCAGCAGGGGGCGCAGA	-1.3

Sequence	binding signal (log2 normalized intensity)
CCCCGCCCCCAGTGCACCTTAATAAGCACA	4.29
TTTCCATTTTTGCTCCTGCACTTTTGTGCT	1.01
GCACTTTTGGAGTTTGACCTGGAGCCAGGG	5.7
CTACTGCCAGCCAGGGCCACCCATCAGTGG	-1.27
GTTACCTTGGGGTCAAAGTACATCCCCTAA	7.38
GCTGCATTTGTCCGGGTATGTTCTTAAGAT	1.8
CTGACTTGCAACCTTTGCCCTGTTGTCTTT	6.07
AGATAAACCAAGCCTGCAGCACCTTGATGC	-1.18
GAGTGAACCTAGTGGCTGTGGAAGTCTGGC	-0.418
TTGGCTGATAAAACAAATCTACAAATGTTT	0.674
CAGGATTCTTGCTGCAGCTGGGCTATACAA	-1.3
AAATTCCAATATAGCAAAGAGAGTCAAAGT	1.15
GGGAGGACAAAGTTCTGTCCTTTGTCCCCC	4.83
CTCCTCCCTCAGGGATCTTTGCACTTGATG	1.65
GGGCGTGTAGGGAGTGGTTCCCACAGCCCA	-1.33
TGAGGATGGGCAGTCCCTATAGCCTCACTT	-1.3
GCTCTGCATATGCCAACAGGTGCTCTTTAT	0.904
TAGGCCTCAAGACAAACAATAGATAGGACA	-0.918
TTTTCCTTGGCTGTGCTGCCCTTTGCCCTT	8.52
GGTGACAAGGAAAACTACACTCTTGCTAAA	-1.22
GATGCTGGGCAGCTTGTGTGCGTTTCCCAG	0.101
TGGATGGATTCAGATCCAGTGGACTCTCTG	3.71
TTTGCCATTTGGAGAGAGTTTGGCCCCAGT	2.83
AGGATGACAAAGAGCAAGTGACCCTCAGAC	3.47
TCAGAAAGGTCAGCGCTTTGGTAGGCTGTA	0.135

Sequence	binding signal (log2 normalized intensity)
GCAATGGCTTCACAATTCCTAGCAATTCAA	-1.29
ATGTGTTACACCTGTGTGTACTGGGCAGAT	1.46
AATGAGTGTGGGACTTGAGGTCTTATCTTT	1.46
ATCCCTGTTGCCTCATCTGAAAAAAGCTAT	-1.03
AAACAACACACCTTGCCACCCACACTGCAG	-1.22
GCGCCACATTCTGAGCCAGCACTTCGACCT	2.98
TATTTGTAGCTTCAAACCAGTTATTCCAAG	-1.04
TCTCTCTCCACCTGGAGGGACTTTGTCCCA	5.66
TTTCTGTAAAGCTTTATTTTGGGGCTGTAT	0.736
ATAAGCACCCTGCTCCAGCCAGAGGCCTTA	-1.17
CCTTGGGACAGCTGGCCTCATGCCTTATCT	-1.3
CTTATCTGAGGTGCCCTTACATTTTGCTCT	1.39
AGAGATCAAAGGGGAGGTGGGAAAAGAAAT	-1.37
GTCGCCGTGAGGTTATTTGCAGACTCTGTT	1.09
CAAAACAACCACTCTTATCAGACAGGATAT	-0.714
GTCCCACAGGGAAAGTATGGGTCAGCCCTG	1.03
GAAGAAGTTGCTCAGTGTTCCACAGCAAGT	-1.32
ACCAGATCTTACTTTGAGGTGTTCTCTGGG	1.31
TAGGTTGGAGGAGCTGAACTGTAACCTCAA	1.39
CCAGTTCCAGGGATGTCTTTTTCTGACCCA	2.73
TAGTGATTTAGGCTTTTGGGCCCTGTCTGA	0.78
GAGATGCTGGGTGGCATAGTTGATGTCAAT	0.654
TGAGAAACCACAGGAGTGCCGTGAGGGGTT	-1.31
CTGAGGTGCTCTCAGATAAGAGATGAGGAA	-1.37
AAGCATGACAAAATAACGAAGGCATTCTTA	-0.858

Sequence	binding signal (log2 normalized intensity)
GTACCTAGGACAAAGCAAACACTCATTTCA	-1.35
ACACTGAGGAAAAGCTGTCTACAAACACAG	-1.3
TATGAGAGAGAGAGAGAGGTGGGCAAAGGT	1.33
GGGGCCTGAGGAAAGGAAGATGCACATTCC	-1.3
TTCCGGGGGCGGTTTTTCCATTGTACTCAG	1.95
TAGGTTTTTTTTTTTTTTAACGGTCTGCCC	2.46
GTTGCCCGCTTGGCCCTCTTCCAAGTGTTC	1.63
GAAATAAAAGAGCCTGAGCCACTTCACTGG	-1.3
TATGTGCTCACTCCTGGGACAAGGACTTTG	3.11
TTGGGAGGGAAGAGGCAAGGAAAGATAAAT	-1.07
TCCGAACTATTTGGTGCACAAGAGGGCAGT	1.23
GGATCCTTGGAGGACCTTGGGTTCATTTTA	2.86
GAAAAAGCCCAAGAAACTTCAAAGAGTGCA	-1.3
AATAATCTAGAAACCAGTGAGAAAATGGTG	-0.667
CCCTGGTCCAGGCCATGCAACAGCCTCCTC	-1.33
ATCGCCCTTTGAGGAGGCCTTTCCTGACCC	3.43
CTCCGGTCAAGATCAAGTGGAGCCTCTCCT	-1.22
ATAGCCACTGGGGTCATGGAGCTGGAGGGC	0.632
GTAACGTGTCAGAGGTCACTCAGCAATAAA	1.98
TTAGTAACTGACTTTAACTTCAAAGTCCTG	1.47
TCACAATCACAAATGCCTTCAGGGGCATTT	0.453
GAGCATATAAAAGCAGTCTACACTAGGAGG	-1.28
TCCGAACCTGCCAAAGAAGAAAACAATGAC	-1.36
TTATCTAAATGGAGTTACTGTTGCTTCGTG	0.631
TTAGCTATTTGACCTTCGGCCTCAATTATA	7.29

Sequence	binding signal (log2 normalized intensity)
CCTCTGAGTCCTCTTCCCAACTTGGCCTCA	1.54
ACTCTGTGAGAAGGGGTAGTGATCCTGGTA	0.786
TGGCGCTGTTGACCTTGAAATGCCATGTGA	1.79
ACCTTTAAGCACCCAGAGCCCCACCGTTGT	2.89
ATCCCCTCCTGGACTTTGGTCTCATGGGCC	7.4
AAGCAGCATTAGCCTCTATGTCAGGCCATT	-1.43
AAAGTTTCCTCTCCTGCCCTACTCCCTTAA	2.63
CTTGCTTTGTCACCCAGGCTGAAGTCCAGT	2.77
GCCCAGAGCCAGGTGTGCTGAGGAAACTGA	-1.18
TCACAATGGGCCCCAGTAAAAACAGTGGGC	-1.09
GAGGCACAGTCTGCTTTCAGAGATGATAAG	-1.31
GCTGACAGCAGAGAGTTTTCCTTGGCTGTG	-1.15
TATTTCAAGAATGCAAAGCCCTGGCTGACC	1.22
ACCTCTGTCCTTGGCCTCACAGACAGATAG	-1.4
TGTTTATCCTGCCTCCATTAATTAACCTTT	5.39
ACTCAGTTGAAGTTCCAGAAGACTACAAAT	-1.34
TTGCCCTGTGGTCTAGCTTGTTCTCTCCCC	2.48
TAAGACTATCTCATGACAGACCTAAGAACT	-1.29
TTTGGGTAGGAATAGAGCTCTAAACCACCC	-1.32
TCACGTTGGGGGTGCTGATGTTAACACAAG	-0.148
AGCAAACCCCAGCTGAACTCACTACCCTAT	-1.26
AGGAGAAGCTGGAAGGACAGCATTCCTGTC	-1.15
CTGCCCTACTGTATATCCTGACACAGGAAG	0.466
AGTTCTGGGCCAAAGGTCATACCTGTCTAG	5.96
AATAAATGTCATTTAAGACGAGTGGTTTGA	0.832

Sequence	binding signal (log2 normalized intensity)
AAAGGTCAGGAATCGCATTGCAAAATCCAT	-1.17
GGGGCTGCTGGCATCTCATTACTGACAGAG	-1.26
CTCCAAATTCCAGGATCCAAGATCCAACTC	-1.29
GAGCTCTGTGTCAAAAATCAGGGACAAAGT	1.94
CCACACAGCCTGTCAAAGGGAGAAAGACAT	-1.42
TTCAAATCCTTGCTCTGTGGTTTAGTGGTT	1.93
ACTACATTCTTTGAAGACTAGGCTCCAGAT	-1.26
CCAAGATTGAGGCCAGCAAAGGGCAAGTAA	1.35
TGCATGCTGCCAAACTGCCCAGCAGAAAAG	-1.34
ACATGAGTAAACAAGCTCTTTAGATAAACT	-1.29
ATGTCTGTAGGTAAGCACAAAGTACAGCTT	1.48
GAGCTGGGTGGCCCTCTCCCGGGGAGGTCA	2.68
CCAGAATTGCTTTACGAAGTGTTTGTCAAG	1.35
CCACACCGAGATAGTAGAGATAGTGATCAA	-0.852
GCTGGAGGGCAAAGGTCAGAGGCTGATTTC	6.65
AACCCCACACCTCCCTTGCACCAGTTTCTC	1.98
TACCACCGTATTCCTAGCTCCTAGCACGTT	-1.33
CAGAGGGGTTCCTCAGTAAATGCTGGAGAT	-0.234
GGCGACGGACGCGCCGCGCCGGGGAAGCTG	-1.17
GGAGGCATTCCTGCAATCAGAGCTGGATGT	-1.38
